{"source": "paper PMC12136788", "binders": {"B1": {"name": "chr15:83807826:83807827:-_ENSG00000166503_ENST00000299633|hu_hu|FALSE|FALSE (ssRNA)", "RNA": "GGGAGUUCUACAGUCCGACGAUCGGGCAACUUCAUGCAACCAAAUAACAUGAAAUUAAAUCAGUAACUUUUAAAAAAGGCUAAAAUGUCUUUUCCCCCCGAAACACAACAGAGAGGAAUAUGAAUAAUGUACAUACAAACUGGCAACAGAGGAUUGAGCAUCA"}, "B2": {"name": "chr2:202488911:202488912:-_ENSG00000155755_ENST00000286196|hu_mus|hu_hu_hu_mus_False|78_88 (ssRNA)", "RNA": "GGGAGUUCUACAGUCCGACGAUCAUUGAAACAUUUUUCAUAAUCUCAGAGAUGUUUCAGUAUUAUAGUAACAAAAGCUCAAUUGUAAAUACAUGUAUCUUAUAAAAAUACACUUAAAAACACGAGUGGGGAGCGCAGGCGCCACAACAGAGGAUUGAGCAUCA"}, "B3": {"name": "chr12:39756943:39756944:-_ENSG00000139116_ENST00000544797|hu_mus|hu_hu_hu_mus_False|78_108 (ssRNA)", "RNA": "GGGAGUUCUACAGUCCGACGAUCGGUUUGGCUAUUACCCCCAAGGGAAUCCUGCAAUAGUCUUGUUAGCUUAGAGUCUCUGUAAGGGACAUGGGUGGCUCUCUUGCUCUUGUCCCCCAAGGCGCUGAUUACAUUCCCAAGAGCCAACAGAGGAUUGAGCAUCA"}, "B4": {"name": "chrX:12728449:12728450:+_ENSMUSG00000031010_ENSMUST00000089302|perfect_dup|FALSE|FALSE (ssRNA)", "RNA": "GGGAGUUCUACAGUCCGACGAUCAUGCCCUAAGGCUUUUAAAGCUUCAUCUAAACUAUCCACCAAAGAAUUAAAGAACUCUAAAGCAUCAUGUUGUUCACGAAGAUUGACAGGCUCACCCCAAAGCCUGAACUGUUUCCAAAACAACAGAGGAUUGAGCAUCA"}, "B5": {"name": "chr20:57485947:57485948:+_ENSG00000087460_ENST00000306090|hu_hu|FALSE|FALSE (ssRNA)", "RNA": "GGGAGUUCUACAGUCCGACGAUCGGGGGUUUCGCAAAAUCACUCGGGGGAAGGGAAAGGUUGCUUUGUUAAUCAUGCCCUAUGGUGGGUGAUUAACUGCUUGUACAAUUACGUUUCACUUUUAAUUAAUUGUGCUUAAGGCUUCAACAGAGGAUUGAGCAUCA"}, "B6": {"name": "chr11:43534790:43534791:+_ENSMUSG00000044950_ENSMUST00000129229|mus_hu|FALSE|FALSE (ssRNA)", "RNA": "GGGAGUUCUACAGUCCGACGAUCCCAUCUGGUUUUCUCAUGUUUUCUCCAUUCAUUAAAAAAGAAAAAUUAAGGUCUUUUAUAUAUUUACCAAAGACAAGAAAAAAACUACAGUCUCUAUUAGUAAGAAUUCAUGCUCCAUGCCAACAGAGGAUUGAGCAUCA"}, "B7": {"name": "chr6:33282685:33282686:-_ENSG00000236104_ENST00000431845|hu_hu|FALSE|FALSE (ssRNA)", "RNA": "GGGAGUUCUACAGUCCGACGAUCAUGGUGAAACUGUGGUUCCCCUUCCAGAAUAUAUACAAGUCCACAGAGAUAAAGGAAGACAGUAAGUGUGGUGGGAGAUCACCCGGGGGCCACAGCGCCCUUGCAUCGUGCUCCUUAUUCCAACAGAGGAUUGAGCAUCA"}, "B8": {"name": "chr2:78710632:78710633:+_ENSMUSG00000027011_ENSMUST00000028398|mus_mus|FALSE|FALSE (ssRNA)", "RNA": "GGGAGUUCUACAGUCCGACGAUCUCGGGCUCUGGAGCGGCAGGGUCUCGCUGAUCUGCAUCUGAACUGCCACUGCUGGUGCUAGGGCUCUCAUCAUCCGACCUUUGCCUGUCACUGGACAUCUUGGUGAACUUAUCUCUGGGACAACAGAGGAUUGAGCAUCA"}, "B9": {"name": "chr20:60963365:60963366:+_ENSG00000171858_ENST00000343986|hu_hu|FALSE|FALSE (ssRNA)", "RNA": "GGGAGUUCUACAGUCCGACGAUCCGCACGGUAAAGUCCACGAUGUCCCGAAGUGAUGAGCAAAGCCCAGGGAAACACUCACCAUCCUACGAAUGGCCCCGCAGAUAGCAUAAGUUUUAAACUGGCCAUUAAACCUGCCUGUGACAACAGAGGAUUGAGCAUCA"}, "B10": {"name": "chr7:34935884:34935885:-_ENSMUSG00000052997_ENSMUST00000102746|mus_mus|FALSE|FALSE (ssRNA)", "RNA": "GGGAGUUCUACAGUCCGACGAUCUAAAAUCUUUAAUCCUUCCAACACUAUCAAGCCGGCGAUCACUGCAUUAGUAGUAGCUAUAGCAGGAAUGAUAUUCCCUGCCAUUGAUUUUAUAUCAAACCUGCUCUUCAUAUUCAUGCUCAACAGAGGAUUGAGCAUCA"}, "B11": {"name": "chr11:4749296:4749297:-_ENSMUSG00000009073_ENSMUST00000109910|mus_mus|motif|central (ssRNA)", "RNA": "GGGAGUUCUACAGUCCGACGAUCGCAGCCCCGAGCUUGGAGCUUCGGGCUGGGGACGCCAGGGACGCCUUUGGACAGAAAUCCGGGACGGCUGCGGCGCCGACGCCGGGCCUCUCAGCGACCCCCGAGGGUCGCGGGGCCGCGCAACAGAGGAUUGAGCAUCA"}, "B12": {"name": "chr18:38611996:38611997:+_ENSMUSG00000024425_ENSMUST00000025293|mus_hu|FALSE|FALSE (ssRNA)", "RNA": "GGGAGUUCUACAGUCCGACGAUCGAGACCAAAUCCUGAAAUGGCCCCAUACCUUCCUGCAGCUGAAGUGGUCAGGCAAAAAGACAGGAAAAACCCAAUCCAGUUAAAGAGGAAUGCCAUGAAAAAAGUUAACAUGAAAAUCCCCAACAGAGGAUUGAGCAUCA"}, "B13": {"name": "chr2:216981417:216981418:+_ENSG00000079246_ENST00000392132|hu_hu|hu_hu_hu_mus_True|98_98 (ssRNA)", "RNA": "GGGAGUUCUACAGUCCGACGAUCCUGAUACUGGUCCCCACCAGAAAGGGCAUUAUCAGUGCCAUCUGUGCCAUAGAGGACUAACGCAAUCUCAUCUUUGCUCUCCGAAAAUACCUGUCGUUGGACAAACAUAGUCAUCACUUUCAACAGAGGAUUGAGCAUCA"}, "B14": {"name": "31522678_31522798_1204_CDS_ENSMUSG00000022234_ENSMUST00000022842|mouse|control|control (ssRNA)", "RNA": "GGGAGUUCUACAGUCCGACGAUCGAUAACCAGCAUUUUGUCUUUUGUAGUGCCAAAGGAGAUCUCCUGCACCACACCAGCAAAGCCCAGCUUCUCAGAGGUGAGCUCUGAGAACCGUGGGACAAUCCGUCCUCCUGUUGCAAUCAACAGAGGAUUGAGCAUCA"}, "B15": {"name": "chr1:169100823:169100824:+_ENSG00000143153_ENST00000367816|hu_mus|motif|central (ssRNA)", "RNA": "GGGAGUUCUACAGUCCGACGAUCGACAGUUUGUUCAAGACUAGUAGGUUUGUGUAUCUUUUUUUAACUUAUUAAAUGGCGGGUGGGAAAGAUUUGUGCUUGUGAUCAGCUCUUAAUUUCAAUUUUUACAUCAAAGCGUCCCUGCAACAGAGGAUUGAGCAUCA"}, "B16": {"name": "chr9:127920631:127920632:-_ENSG00000119414_ENST00000456642|hu_hu|motif|central (ssRNA)", "RNA": "GGGAGUUCUACAGUCCGACGAUCAAUACGAUCAGGCCAUUUAGCCUUUAAUGCAAGAAGGUAAGUGAAGGUCUCCAAACGGUAGUAACCUCUGUCUACAAAAUCACCCAUAAAUAUGUAGUUUGUGUCAGGAACCUGACCUCCCAACAGAGGAUUGAGCAUCA"}, "B17": {"name": "chr4:107013644:107013645:+_ENSMUSG00000057375_ENSMUST00000075693|mus_hu|motif|central (ssRNA)", "RNA": "GGGAGUUCUACAGUCCGACGAUCCACAUAAUGGUACGUCUUCUCUCCCAGAUGGAUCAAGAAGUUGGAAAGAUUCCCACGGAUUGCGGUGGCAAAGACCAACGUGGCACAUAUCCAAAAGGGGCCAUAGAGAUCUGGAUUGCUCAACAGAGGAUUGAGCAUCA"}, "B18": {"name": "225706969_225707089_1027_CDS_ENSG00000154380_ENST00000366843|human|control|control (ssRNA)", "RNA": "GGGAGUUCUACAGUCCGACGAUCUUCUUGCCUCUCCCGUUCCAGUCUCUCCAGCCUCUCUCGUUCUUGUCUUUCUUGCCUCUCCCGAUCCAGGCGUUCCUGCCGCUCCAGGCGUUCCUGCCGCUCCAGGCGUUCCUGCCGCUCCAACAGAGGAUUGAGCAUCA"}, "B19": {"name": "chr1:78428520:78428521:-_ENSG00000162613_ENST00000370768|hu_hu|motif|central (ssRNA)", "RNA": "GGGAGUUCUACAGUCCGACGAUCCCCUAAAGGAUUUACUGGGCCACCAAUCUUUUCUUCUAUGAGUUGCCGAGCAUAGUCGGUCUGUUGUGGAGUGCCACGAAUUGUAAAUAACUUCAUAUUAGGAUCUGCAUUUGGUGGAGGCAACAGAGGAUUGAGCAUCA"}, "B20": {"name": "210444459_210489811_375_3pUTR_ENSG00000078018_ENST00000360351|human|control|control (ssRNA)", "RNA": "GGGAGUUCUACAGUCCGACGAUCUUCUCAAAGGGUUGAUAAUAUUUUCUGGCUUCUUUCUUUUAAUUUUCUGAAUGAGUAGCUCCCAAUCAAUGCUUCCUCGGUUAGAGACAAGCUGAAGAAUCAGCGCAUAUGCAGCAAUACCAACAGAGGAUUGAGCAUCA"}, "B21": {"name": "chr7:7679991:7679992:-_ENSG00000106399_ENST00000396682|hu_hu|hu_hu_hu_mus_False|58_78 (ssRNA)", "RNA": "GGGAGUUCUACAGUCCGACGAUCUGGGAUGAAUCUUUUCCAGCUUCCCCACGAAGCAGACAGGCUUGUCGAUAUACUGAGCUAGCAUGCUGGCGUUGACGCGCGCUUUGGGGAGCUGCAUUAUGUCCUCCAUGAUUCUGCCGCCAACAGAGGAUUGAGCAUCA"}, "B22": {"name": "chr2:48026839:48026840:+_ENSG00000116062_ENST00000540021|hu_hu|hu_hu_hu_mus_False|78_78 (ssRNA)", "RNA": "GGGAGUUCUACAGUCCGACGAUCAUAGUGAGCCACUAGCGUCCUAAAUCUGGAACAAUGGCGAUCAUCCGAAAACUGGCCGAUGAAAAACUUGCCCAGUGAAGUGUCCACAAAGCAAACACCAUACACACGAGUGUGACCAGACAACAGAGGAUUGAGCAUCA"}}, "note": "Some of the results follow.", "data": [{"target": "T1, UNK ZnF1-3 (human, UniProt Q9C0B0 31-174)", "T1 sequence": "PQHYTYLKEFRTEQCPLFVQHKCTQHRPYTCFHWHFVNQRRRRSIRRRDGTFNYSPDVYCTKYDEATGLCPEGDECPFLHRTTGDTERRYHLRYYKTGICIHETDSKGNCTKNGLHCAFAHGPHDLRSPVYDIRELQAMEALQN", "test": "nsRBNS (natural sequence RNA bind-n-seq); RBNS binding buffer (assumed for nsRBNS): 25 mM Tris pH 7.5, 150 mM KCl, 3 mM MgCl2, 0.01% Triton X-100, 500 ug/ml BSA, 20 U/ml SUPERase-In, 4 C; UNK is unkempt and MSI1 is Musashi-1; names of the RNAs are library labels; protein concentration not given here; high values mean tight binding", "units": {"binding signal": "enrichment R"}, "values": [{"binder": "B1", "binding signal": 2.35}, {"binder": "B2", "binding signal": 0.674}, {"binder": "B3", "binding signal": 0.751}, {"binder": "B4", "binding signal": 1.31}, {"binder": "B5", "binding signal": 1.01}, {"binder": "B6", "binding signal": 2.05}, {"binder": "B7", "binding signal": 1.3}, {"binder": "B8", "binding signal": 0.829}, {"binder": "B9", "binding signal": 1.23}, {"binder": "B10", "binding signal": 0.512}, {"binder": "B11", "binding signal": 0.34}, {"binder": "B12", "binding signal": 1.85}, {"binder": "B13", "binding signal": 0.992}, {"binder": "B14", "binding signal": 0.839}, {"binder": "B15", "binding signal": 1.24}, {"binder": "B16", "binding signal": 1}, {"binder": "B17", "binding signal": 1.26}, {"binder": "B18", "binding signal": 0.565}, {"binder": "B19", "binding signal": 1.36}, {"binder": "B20", "binding signal": 1.27}, {"binder": "B21", "binding signal": 0.661}, {"binder": "B22", "binding signal": 1.25}]}]}
